# From article PMC4336329 (PLoS ONE, 2015)
# The campaign covered roughly 310,000 compounds. About 14,000 (4.5%) showed an effect of 50% or more. The effect is printed as a negative number. Some of the results follow.
# Target: human ether-à-go-go-related gene (hERG) potassium channel (human, UniProt Q12809)
# Assay: primary screen, population patch clamp on CHO cells stably expressing hERG
# 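Note: peak tail current of the secondary pulse compared with the same well before compound.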
# Sequence of human ether-à-go-go-related gene (hERG) potassium channel (Q12809 whole entry, looked up): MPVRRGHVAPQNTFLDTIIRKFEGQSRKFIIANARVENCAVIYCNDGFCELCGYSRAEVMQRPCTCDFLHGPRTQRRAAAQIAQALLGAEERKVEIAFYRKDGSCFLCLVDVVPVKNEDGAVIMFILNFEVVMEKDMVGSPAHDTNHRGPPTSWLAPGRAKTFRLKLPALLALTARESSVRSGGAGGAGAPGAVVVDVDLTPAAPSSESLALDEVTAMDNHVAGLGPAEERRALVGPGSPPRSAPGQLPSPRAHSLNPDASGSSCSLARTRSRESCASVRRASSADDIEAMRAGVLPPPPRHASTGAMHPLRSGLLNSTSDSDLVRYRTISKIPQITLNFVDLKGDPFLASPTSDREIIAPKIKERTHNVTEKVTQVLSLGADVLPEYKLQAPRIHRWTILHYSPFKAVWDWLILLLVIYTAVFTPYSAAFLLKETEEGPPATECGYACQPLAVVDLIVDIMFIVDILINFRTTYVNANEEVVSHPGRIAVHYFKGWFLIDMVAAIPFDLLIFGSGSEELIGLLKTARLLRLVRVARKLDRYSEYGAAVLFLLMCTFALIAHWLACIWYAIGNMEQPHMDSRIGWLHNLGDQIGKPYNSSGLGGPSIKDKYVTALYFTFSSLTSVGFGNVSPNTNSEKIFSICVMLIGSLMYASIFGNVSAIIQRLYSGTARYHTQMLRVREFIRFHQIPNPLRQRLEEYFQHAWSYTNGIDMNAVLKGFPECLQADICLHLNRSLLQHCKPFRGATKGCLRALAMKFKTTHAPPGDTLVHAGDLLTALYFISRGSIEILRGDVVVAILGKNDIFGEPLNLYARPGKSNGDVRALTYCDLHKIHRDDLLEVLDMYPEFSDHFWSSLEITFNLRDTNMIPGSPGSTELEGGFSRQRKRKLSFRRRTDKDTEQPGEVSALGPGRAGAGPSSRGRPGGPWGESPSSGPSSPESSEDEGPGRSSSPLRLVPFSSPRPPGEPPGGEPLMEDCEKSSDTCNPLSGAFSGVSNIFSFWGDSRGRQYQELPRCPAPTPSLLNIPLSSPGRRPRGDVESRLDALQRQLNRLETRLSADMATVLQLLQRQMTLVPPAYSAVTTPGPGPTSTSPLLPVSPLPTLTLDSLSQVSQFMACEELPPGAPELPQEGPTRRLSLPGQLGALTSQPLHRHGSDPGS
row,Compound,"hERG current change (%, negative = inhibition) at 10uM"
1,Cc1ccnc(NC(c2cccnc2)c2ccc3cccnc3c2O)c1 (stereo not shown),-22.5%
2,O=C(NC(=S)NCCN1CCOCC1)c1ccc(Cl)cc1,-13.2%
3,O=C(CNC(=O)c1ccco1)Nc1ccc(N2CCCCCC2)cc1,-7.71%
4,O=C(OCc1nnn(Cc2ccccc2)c1-c1c(COC(=O)c2ccccc2)nnn1Cc1ccccc1)c1ccccc1,-2.74%
5,CN(Cc1ccccc1)c1nc2c(c(=O)[nH]c(=O)n2C)n1Cc1ccccc1Cl,-21.3%
6,O=C(Cn1cnc2c(cnn2-c2ccc(Cl)cc2)c1=O)NCC1CCCO1 (stereo not shown),-5.12%
7,COc1ccccc1NC(=O)N1CCN(c2ccnc3cc(Cl)ccc23)CC1,-80.5%
8,CCn1cc(C(=O)OCC(=O)OC2CC(C)CCC2C(C)C)c(=O)c2ccc(C)nc21 (stereo not shown),-51.8%
9,CCc1ccc(C(=O)NC(CC(C)C)C(=O)O)cc1 (stereo not shown),-2.4%
10,O=C1c2ccccc2C(=O)N1Cc1ccccc1F,13%
11,CCOC(=O)C1CCN(C(=O)NS(=O)(=O)c2ccc(C)cc2)CC1,32.5%
12,Cc1nc2ccccc2n1Cc1n[nH]c(=S)n1-c1ccc(Cl)cc1,17.6%
13,CN(c1cccc(NC(=O)CSc2ccc(Cl)cc2)c1)S(C)(=O)=O,-10.9%
14,O=C(NCC(=O)N(Cc1ccccc1)C(C(=O)NC1CCCC1)c1cccnc1)c1ccco1 (stereo not shown),13.8%
15,CCCOP(=O)(OCCC)C(NC(=O)c1cc(OC)c(OC)c(OC)c1)c1ccccc1 (stereo not shown),-0.336%
16,CN(Cc1ccccc1)C(=O)c1[nH]cnc1C(=O)Nc1cccc(Cl)c1,11.9%
17,CC(=O)Nc1ccc(S(=O)(=O)NCCC(=O)OCc2nc(N)nc(Nc3ccccc3C)n2)cc1,5.36%
18,O=C(CN1CCCCC1)N1CCCc2ccccc21.O=C(O)C(=O)O,2.82%
19,Cc1sc2ncn(/N=C/c3ccco3)c(=O)c2c1C,-2.43%
20,CCCc1cc(=O)[nH]c(SCC(=O)Nc2sc(C(N)=O)c(C)c2C(=O)OCCOC)n1,-23%
21,CCOC(=O)N1CCN(Cc2nnc(-c3ccccc3Cl)o2)CC1.Cl,11.4%
22,COc1ccc(OC)c(Cc2nnc(CCC(=O)N3CCCCCC3)o2)c1,7.7%

row,Compound,"hERG current change (%, negative = inhibition) at 10uM"
1,CC1CN(C(=O)/C=C/c2ccc3c(c2)OCO3)CC(C)O1 (stereo not shown),-21%
2,Cc1ccccc1-n1c(SCC(=O)O)nc2sc3c(c2c1=O)CCCC3,7.7%
3,CCCNc1c(NS(=O)(=O)c2ccc(C)cc2C)c(=O)oc2ccccc12,-52.2%
4,Cc1cccn2c(=O)c(/C=N/O)c(N3CCCC3)nc12,-14.3%
5,Cc1ccc(S(=O)(=O)NC(C)C(=O)N2CCOCCOCCOCCOCC2)cc1 (stereo not shown),7.04%
6,O=C(CCc1ccccc1)NNC(=O)COc1ccc(Cl)cc1,25.5%
7,CCOCCCNC(=O)CSc1nnc(-c2ccc(S(=O)(=O)N3CCCC3)cc2)n1C,11.2%
8,Cc1oc(-c2cccc(Cl)c2)nc1CS(=O)(=O)CC(=O)NCCCN1CCOCC1,7.33%
9,COc1ccc(CN(C(=O)c2cc(=O)c3cc(C)cc(C)c3o2)C2CCS(=O)(=O)C2)cc1 (stereo not shown),-49.2%
10,CC(C)Oc1ccc(C(=O)NC2CCS(=O)(=O)C2)cc1 (stereo not shown),18.8%
11,O=C(c1ccco1)N(Cc1ccccc1)c1cccc([N+](=O)[O-])c1,-38.3%
12,CC(Sc1nnnn1C)C(=O)Nc1ncc(Cl)cc1Cl (stereo not shown),-8.87%
13,N#Cc1ccc(-c2nc3ccccc3c(=O)n2O)cc1,16.6%
14,CS(=O)(=O)N(CC(=O)Nc1cccc(Br)c1)Cc1ccccc1,1.84%
15,Cc1cc(C)nc(SCCC(=O)N(C)C)n1,9.46%
16,COc1ccc(/C=N/OCC(=O)N=Nc2c(O)[nH]c3ccc(Br)cc23)cc1,17.4%
17,COC(=O)c1sc2nc3c(cc2c1N)COC(C)(C)C3,-9.7%
18,Cc1ccc2nc(Nc3ccc(F)cc3)c3nncn3c2c1,12.8%
19,CCC(=O)NC(=S)Nc1cccc(NC(=O)c2ccccc2)c1,-1.7%
20,Cl.OCCNCC1(O)C2CC3CC(C2)CC1C3 (stereo not shown),12.6%
21,C=CCNC(=S)NNC(=O)c1ccc(=O)n(Cc2ccccc2)c1,25.8%
